Data from the supplement of paper PMC3334620.
Whole data set: some 33,000 sequences, median “E-score (-0.5 to 0.5)” near -0.012, cut for the highest 2% near 0.29. The list shows a part of the results.

Each sequence was assayed against T1, Ybr033w (UniProt P38073) (assay: PBM E-score (8-mer binding enrichment) (E-score (-0.5 to 0.5)); higher = stronger / more preferred TF binding; most listed sequences are background and not binding sites). Details: protein concentration: 200 nM; construct: GST-full length.
T1 sequence: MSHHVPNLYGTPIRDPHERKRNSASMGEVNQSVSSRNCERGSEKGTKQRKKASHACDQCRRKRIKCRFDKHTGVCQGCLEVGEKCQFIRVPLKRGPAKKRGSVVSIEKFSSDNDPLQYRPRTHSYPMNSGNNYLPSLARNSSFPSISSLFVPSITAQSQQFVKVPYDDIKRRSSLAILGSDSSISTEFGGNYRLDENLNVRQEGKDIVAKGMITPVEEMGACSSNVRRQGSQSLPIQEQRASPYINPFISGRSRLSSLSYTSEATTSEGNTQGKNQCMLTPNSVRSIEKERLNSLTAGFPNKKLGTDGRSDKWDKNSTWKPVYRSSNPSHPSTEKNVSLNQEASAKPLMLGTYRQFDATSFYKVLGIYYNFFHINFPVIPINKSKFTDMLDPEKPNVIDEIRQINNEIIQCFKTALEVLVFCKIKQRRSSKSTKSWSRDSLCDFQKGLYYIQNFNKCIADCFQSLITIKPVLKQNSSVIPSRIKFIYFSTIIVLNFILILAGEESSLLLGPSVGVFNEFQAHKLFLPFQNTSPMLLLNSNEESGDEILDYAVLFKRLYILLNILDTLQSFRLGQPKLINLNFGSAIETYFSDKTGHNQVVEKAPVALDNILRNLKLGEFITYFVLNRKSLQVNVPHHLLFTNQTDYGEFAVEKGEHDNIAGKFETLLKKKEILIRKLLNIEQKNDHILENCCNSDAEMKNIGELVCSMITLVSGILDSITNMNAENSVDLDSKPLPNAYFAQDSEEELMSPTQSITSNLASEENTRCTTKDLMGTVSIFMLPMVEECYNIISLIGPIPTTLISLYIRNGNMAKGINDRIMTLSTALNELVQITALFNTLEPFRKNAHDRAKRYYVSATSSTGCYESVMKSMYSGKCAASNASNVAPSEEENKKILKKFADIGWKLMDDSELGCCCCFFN
Method in brief: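 Full-length yeast transcription factors or their DNA-binding domains, GST-tagged and expressed with PURExpress, were applied at about 100-200 nM to universal all-10-mer Agilent arrays. These arrays had been made double-stranded by primer extension on fresh or once-stripped slides. Detection used fluorescent anti-GST, normalisation used masliner, and E-scores for ungapped eight-base words pooled with reverse complements came from the Universal PBM Analysis Suite.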

Row | Sequence | PBM E-score
1 | CTCTAGGC | -0.153
2 | CCGGACGG | -0.247
3 | CGCCCTTA | -0.128
4 | CACTGATC | 0.0744
5 | CCTGAAAC | 0.125
6 | CATATTCA | 0.0595
7 | AGGGTGAA | -0.00596
8 | CGGCATGA | -0.0494
9 | CTTTACCC | -0.0404
10 | TTCTGAAA | 0.0473
11 | ACAACCGG | -0.0135
12 | GACGTCTA | -0.16
13 | CATTTGCC | -0.253
14 | ATACTGTA | 0.0984
15 | AGGCGCAC | -0.0157
16 | CGAGTACC | -0.0949
17 | AATGATAC | 0.22
18 | CACTTCAA | 0.128
19 | GGAAGGGA | -0.15
20 | ACGGCCGC | -0.173
21 | GGAGGTTA | -0.123
22 | AGAAGGGA | -0.344

Row | Sequence | PBM E-score
23 | AAACAACT | 0.188
24 | AAAGAGGA | -0.0608
25 | GTATATCA | 0.153
26 | GCCGAGCA | -0.337
27 | CACCTCCC | -0.246
28 | AAATTAGC | 0.154
29 | CGGTCAGC | -0.0465
30 | GATAAGGA | 0.0444
31 | GGAAATGA | 0.133
32 | AACAACTG | 0.271
33 | AACACTAA | 0.0799
34 | CGCTAGCA | -0.0834
35 | AATCACGT | 0.153
36 | GCACGAAC | 0.00932
37 | AGAGCACG | -0.199
38 | GGAATCAC | 0.0639
39 | CCATCTAA | 0.172
40 | AGGCCGAG | 0.149
41 | TGGCTGAA | -0.00769
42 | ATGTCGGG | -0.0221
43 | CAGATCGA | 0.0372
44 | ATGTTGGA | 0.175

Row | Sequence | PBM E-score
45 | GATACATC | -0.0274
46 | AAAAAACT | 0.183
47 | ATGTCTAC | -0.092
48 | GGTTTTCA | 0.105
49 | GCTTTCCA | 0.0541
50 | ACTTTAGC | -0.0319
51 | AGGGGAAC | -0.278
52 | CTCCAAAG | -0.087
53 | AAGATGCC | -0.0419
54 | AGGTATGG | -0.217
55 | CATAAACC | 0.11
56 | CCTACTCG | -0.109
57 | TTCTAAAA | 0.221
58 | GTTAAAAC | 0.0881
59 | CATAACGG | 0.0155
60 | GACCTAGA | -0.172
61 | CGCGTTAC | 0.00271
62 | CGTCCTAA | -0.138
63 | CATTTCCC | 0.0841
64 | ATAATGCC | 0.0843
65 | TACTCTGA | -0.0623
66 | GCGTGCAC | -0.162

Row | Sequence | PBM E-score
67 | AGGATTTC | 0.119
68 | ACGGGTCT | -0.327
69 | CCTGTCAG | 0.0774
70 | AAGTAGCA | 0.162
71 | ATGGAACC | -0.094
72 | ACTGCGCC | -0.278
73 | AGACAGGG | -0.164
74 | ACAACTTA | 0.142
75 | ATAACAAA | 0.29
76 | ACCTTGTG | -0.0938
77 | GTCCGTTA | 0.112
78 | CGAATAGC | -0.0575
79 | AAAATACA | 0.254
80 | CAGTCACC | -0.164
81 | GAAGGGCA | -0.156
82 | CCCCCACG | -0.283
83 | GTCATGCA | -0.0282
84 | ACATCGGA | 0.13
85 | AGCCTGTG | -0.18
86 | GACTTTAA | 0.0963
